According to the supplement of paper PMC8821664:
The other results are listed elsewhere or left out. Single values are uncertain, as repeats are few or missing.

system: Beas-2B AQP5-HiBiT reporter cells; experiment: AQP5-HiBiT luminescence relative to vehicle (ratio to vehicle); higher = higher AQP5-HiBiT protein abundance; settings: 10 µM; 18 h
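Also: monoclonal Beas-2B line stably carrying CMV promoter-driven AQP5-HiBiT, 5,000 cells per well in 384-well plates, lytic HiBiT plus LgBiT NanoLuc luminescence, FDA-approved drug library screen.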

| SMILES | AQP5-HiBiT luminescence |
| --- | --- |
| CN(C)C(=O)Oc1ccc[n+](C)c1 [Mestinon] | 0.998 |
| CC(C)OC(=O)[C@H](C)N[P@](=O)(CO[C@H](C)Cn1cnc2c(N)ncnc21)Oc1ccccc1 [GS-7340 Tenofovir alafenamide] | 1.07 |
| Cc1cccc([C@H](C)c2c[nH]cn2)c1C [Dexmedetomidine] | 0.579 |
| [O-][n+]1ccccc1[S-].[O-][n+]1ccccc1[S-].[Zn+2] [Zinc pyrithione] | 52.4 |
| Cc1ccc(-c2nc3ccc(C)cn3c2CC(=O)N(C)C)cc1 [Zolpidem] | 0.764 |
